In the RNAGym collection of RNA variant scans (doi:10.1093/nar/gkz1192):
Read counts are not given, so values of variants with three or more changes are uncertain.

B1: CPEB3 Ribozyme (parent)
chain: UAACAGGGGGCCACAGCAGAAGCGUUCACGUCGCAGCCCCUGUCAGAUUCUGGUGAAUCUGCGAAUUCUGCUGUAUAUCUC

Variants of: B1
Experiment: self-cleavage, relative activity (ratio to wild type); higher = more cleavage; in vitro, sequencing
In short: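 Barcoded CPEB3 ribozyme mutants, produced by rounds of error-prone PCR, self-cleaved while being transcribed with T7 RNA polymerase for 5 hours at 37°C and during a subsequent 15 min DNase I step before EDTA was added. Sequencing of template-switched cDNA on Illumina gave cleaved and total reads, and DNA sequencing assigned barcodes to variants. Each variant's relative activity is its cleaved/total read fraction divided by the unmutated ribozyme's fraction, averaged across three batches. A variant needed a minimum of 5 reads.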

Variant | self-cleavage
A15G U49A A64G C81U | 0.32
A15U A28C A64G | 0.18
A15U A21G U69A | 0.16
A15U C17A A35G U41A G42A U69A U76C | 0.05
A15G U41C C71U | 0.29
A15U A35C A57U U72C | 0.3
A15U A18C A21G | 0.33
A15U A20U U31C | 0.05
A15G U41C U66C U69C | 0.27
A15U A28G C40U | 0.2
A15U A18G A45U G53U U66C U80C | 0.12
A15U A18G A28G U31C U60A U69C | 0.05
A15U A28U A47U | 0.21
A15G U31A A57G U72C | 0.75
A15U A18U U43A U48C U51A A64U | 0.07
A15G U41A A64G | 0.21
A15G U49C A56G | 1
A15G U26G U54A | 0.49
A15U A35G U54C G63A A65C | 0.65
A15U A18U A47G | 0.14
A15G U26C U48A U49A U66C U78C | 0.06
A15G U31A U43C A64G U78C | 0.09
A15G U31A U60C U72A | 0.15
A15U A28G U76C U78C | 0.15

Variant | self-cleavage
A15U A20U A56U U72A | 0.07
A15U A21G A56G U67C C71U U72C U78A | 0.12
A15U C27U A45G U51G G63A | 0.08
A15G U31C G63C | 0.5
A15U A35C U41A | 0.28
A15U A45G U51C G73A | 0.84
A15G U41C U67G | 0.26
A15U A35U U54C | 0.25
A15G U31A U43C U74A | 0.44
A15G U43C U51C C62A C81A | 0.09
A15U A21G U54C A57G | 0.15
A15G U31A U72C | 0.87
A15U A18G A77U | 0.52
A15U A18U U60C U72C | 0.16
A15U A18G U48A U66C A75G | 0.17
A15U A18G U72C | 0.35
A15U A20G A28U | 0.23
A15G U48C C62A | 0.25
A15U A18U C27U U60A A64G | 0.08
A15U A18U A20G U41C A56G | 0.37
A15G U54C C62U | 0.17
A15G U31C U43C A57G | 0.06
A15G U51A G53A A57G | 0.64
A15U A18U U31C C71A U74A A75U | 0.1

Variant | self-cleavage
A15U A45G U78A | 0.41
A15G U26C U58C | 0.18
A15U A21G U58A U69A U72G | 0.07
A15G U49C A64G A77G | 0.05
A15G U58G A65G U69C | 0.23
A15U A28G U54C G70A U76C U80C | 0.05
A15U A35G U41C | 1.26
A15G U67C U76A | 0.13
A15U A21G U26G A28G U31G | 0.07
A15G U76A C81G | 0.6
A15U A20G A21G A35G A64U | 0.05
A15U A45U A56G | 0.1
A15U A21G U41C U51G U76A U80C | 0.34
A15U A18U C38U C71A U74A A75U | 0.07
A15U A20G A28U A47G U49C U72C | 0.06
A15U A35U U76C U78C | 0.57
A15U A18U C27U U54A | 0.13
A15G U76C A77U | 0.6
A15U A20G A35U U69A U72A U74A U80C | 0.03
A15U A18U C50U U54C U60A U72C | 0.1
A15U A56U U67A | 0.15
A15U A20U A64U | 0.12
A15U A20U C32U U48C U80C | 0.14
A15U A64G A75G | 0.26

Variant | self-cleavage
A15U A18U U54A C79A | 0.12
A15U A47G U48C G55A | 0.11
A15U A45C A56G | 0.53
A15U A21G C37U U54G A57G | 0.05
A15G U41A A47G U72C | 0.42
A15G U49C U80C | 0.35
A15U A20U U31A U72G U74C | 0.06
A15U C23G U25C U80C | 0.08
A15G U58C U67C | 0.22
A15U A20G C39A A75U | 0.08
A15G U41C U67C U69C | 0.4
A15U A18U U25C U49C U78C | 0.07
A15G U41C U48C A65G U67C | 0.1
A15G U60C A77G | 0.2
A15U A21U U49C A64G U69A | 0.07
A15G U41C U49C U72A | 0.19
A15U A28C U31C A57G A64G | 0.09
A15U A18U U26G U49A A65U U69C | 0.11
A15U A18G C27A A28G C62U U74G U80C | 0
A15G U31A G33A | 0.19
A15G U60A U67G U72A | 0.16
A15U C23U U49C | 0.18
A15U A18U A35G U41C U43C A64G | 0
A15G U43C U51A | 0.32

Variant | self-cleavage
A15U A64U U67C U69C | 0.15
A15G U48C C59A | 0.13
A15U A45C U49C A64G | 0.02
A15U C29A A45U G61C A64G U74C | 0.07
A15G U43C G63U U76C A77G | 0.9
A15G U43C U78A | 0.62
A15G U31C C38G U69C A75G | 0.39
A15G U43A U48C U49A U69C U76C | 0.35
A15U C29U U67C U72C | 0.1
A15U A57G U72A | 0.91
A15U A28G C59A U74C A75C | 0.09
A15U A28G U80C | 0.26
A15U A20G A56U | 0.17
A15G U41C U43C A47U | 0.07
A15U A20U A65G A77C | 0.17
A15U A20G A35U A57G | 0.09
A15G U41C U66C U78C | 0.27
A15G U48C U72A A77U | 0.25
A15U C23G U48C U51A | 0.19
A15U A45G A47G | 0.29
A15G U72A U74C A77U | 0.27
A15G U26G U31C G33A U41C A45U | 0.09
A15U A21U U31C G36A U41A A45G | 0.05
A15U A21U U31A U49C U78C | 0.15

Variant | self-cleavage
A15U A28U U69G | 0.11
A15U A45G A65G U69A | 0.18
A15U C17U C34U U51A A77G | 0.01
A15U A20C U31C A45U U51A U78C | 0.06
A15G U51C A56G U76C | 0.47
A15U A18G A20G A64G | 0.12
A15G U31A A47G G55A A57G A64G A75G | 0.06
A15U A18G A21G U25C C27G U60C A75G | 0.03
A15U C23G U51C A57G A64C | 0.08
A15U A35U A57G U74A | 0.7
A15G U26C U43A U49C U51C A56G U76C | 0.1
A15G U54A U67A G70A | 0.26
A15U A45G U69C | 0.14
A15G U41C U58C G70A | 0.14
A15G U31C U54A A64G U72A | 0.1
A15G U60C C62G U67A | 0.15
A15G U54C U69A U78C | 0.22
A15G U26C U31A G52A U58C | 0.07
A15G U41A A56U U60A U80C | 0.09
A15G U43C A56G U69C U78C | 0.15
A15G U43C A56U U67A U74A | 0.13
A15U A35U A45G A64U | 0.26
A15G U31A U43C U72A A75U | 0.25
A15U A21G U41C U51A U54C A56G U72A | 0.15

Variant | self-cleavage
A15G U54A G55C U74C | 0.44
A15G U26C U76C | 0.31
A15U C27A A35C U41A C79A | 0.31
A15U A21G U26C A35G C62U A64U U67C | 0.08
A15G U26C U74A | 0.51
A15G U26C U31C U49A U66A U72C U76A | 0.17
A15G U48C U54C A57G | 0.98
A15G U69A U76C | 0.4
A15U A18G U49A A65G A77G | 0.07
A15U A20G A45G U48C | 0.09
A15U C34A A35U | 0.09
A15U A18U U25C U51G U54C | 0.04
A15G U31C C34U U80C | 0.63
A15U A21G U54C A56G | 0.2
A15G U43C G53U C71A | 0.15
A15G U41C U43A U67C U72A A77G | 0.14
A15U A56G A64G U69A | 0.1
A15G U43A U48C | 0.29
A15G U31G U51C U72A | 0.45
A15G U43A U54C A64G | 0.33
A15G U51C U54C U60C | 0.27
A15U A21G U31A | 0.35
A15G U41C A56U U60C | 0.07
